Here are results for six compounds from PMC7038631 (Alzheimer's & dementia : the journal of the Alzheimer's …, 2019).

For the experiment, the target named is full-length 2N4R WT tau oligomers (tau-GFP/RFP FRET biosensor) (Homo sapiens, UniProt P10636). Description: WT tau inter-molecular FRET biosensor. Particulars: HEK293 WT tau biosensor; for Decrease in FRET efficiency below the mean of all wells in NCC screen: 10 μM, 2 hours.

Where only a bound is given, the exact number is not on record here.

For `CCc1oc2ccccc2c1C(=O)c1cc(Br)c(O)c(Br)c1` [Benzbromarone], the “Decrease in FRET efficiency below the mean of all wells in NCC screen” value (shortened to “Decrease”) is more than 5 SD.

Take `CCCCNc1cc(C(=O)O)cc(S(N)(=O)=O)c1Oc1ccccc1` [Bumetanide]: the “Decrease” value is more than 5 SD.

Consider `CC(C)c1ccc2c(c1)c(SC(C)(C)C)c(CC(C)(C)C(=O)O)n2Cc1ccc(Cl)cc1` [MK-886], for which the “Decrease” value is recorded as more than 5 SD.

As for `Cc1cccc(Nc2ccncc2S(=O)(=O)NC(=O)NC(C)C)c1` [Torsemide], the “Decrease” value is recorded as more than 5 SD.

With `Oc1cc(Cl)ccc1Oc1ccc(Cl)cc1Cl` [Triclosan], the “Decrease” value is more than 5 SD.

As to `C=C[C@@]1(C)CC(=O)[C@]2(O)[C@@]3(C)[C@@H](O)CCC(C)(C)[C@@H]3[C@H](O)[C@H](OC(C)=O)[C@@]2(C)O1` [forskolin], the “Sensitivity of tau FRET biosensor to addition of compound” value is recorded as “sensitive”.
